From PMC3407085 come the findings set out here.

Protein sequences, listed by entry. Tags and fused reporters are not part of them.
UniProt P27540: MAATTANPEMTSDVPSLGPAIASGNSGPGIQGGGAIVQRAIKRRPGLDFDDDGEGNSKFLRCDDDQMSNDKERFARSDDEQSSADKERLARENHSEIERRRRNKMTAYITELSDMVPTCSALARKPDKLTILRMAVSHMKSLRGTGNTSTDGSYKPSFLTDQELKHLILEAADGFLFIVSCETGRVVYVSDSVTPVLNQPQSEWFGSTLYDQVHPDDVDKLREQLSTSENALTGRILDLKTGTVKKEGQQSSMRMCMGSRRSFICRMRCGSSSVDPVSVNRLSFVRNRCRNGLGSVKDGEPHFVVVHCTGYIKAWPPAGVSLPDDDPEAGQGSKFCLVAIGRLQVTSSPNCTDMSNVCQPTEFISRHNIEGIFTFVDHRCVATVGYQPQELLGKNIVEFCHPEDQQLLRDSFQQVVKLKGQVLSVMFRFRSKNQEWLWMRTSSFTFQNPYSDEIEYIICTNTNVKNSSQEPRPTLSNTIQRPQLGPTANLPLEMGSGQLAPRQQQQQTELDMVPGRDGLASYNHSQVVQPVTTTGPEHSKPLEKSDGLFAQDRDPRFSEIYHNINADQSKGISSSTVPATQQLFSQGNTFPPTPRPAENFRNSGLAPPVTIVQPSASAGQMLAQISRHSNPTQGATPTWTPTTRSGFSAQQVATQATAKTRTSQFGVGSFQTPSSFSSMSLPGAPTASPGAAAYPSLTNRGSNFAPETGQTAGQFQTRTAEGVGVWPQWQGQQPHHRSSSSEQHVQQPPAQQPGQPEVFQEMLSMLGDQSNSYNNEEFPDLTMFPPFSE

In assay [1] the target is GST-HIF1A (UniProt Q16665). The experiment in a line: pull-down; GST fusion proteins immobilised on beads; proteins captured from whole lymphoblastoid cell lysates; Western blotting; only the target purified. A general note: In western blotting, separated proteins are transferred to a membrane and probed.
The target of assay [2] is GST-ARNT (UniProt P27540). The description is as above.

These are yes or no findings as the source states them, for the method shown. In cells and extracts the contact can be indirect. Some binding calls cover weakened binding; strength is not graded here.

B1: EBNA-3 (endogenous in lymphoblastoid cells) (protein, UniProt P12977 1-944)
chain: MDKDRPGPPALDDNMEEEVPSTSVVQEQVSAGDWENVLIELSDSSSEKEAEDAHLEPAQKGTKRKRVDHDAGGSAPARPMLPPQPDLPGREAILRRFPLDLRTLLQAIGAAATRIDTRAIDQFFGSQISNTEMYIMYAMAIRQAIRDRRRNPASRRDQAKWRLQTLAAGWPMGYQAYSSWMYSYTDHQTTPTFVHLQATLGCTGGRRCHVTFSAGTFKLPRCTPGDRQWLYVQSSVGNIVQSCNPRYSIFFDYMAIHRSLTKIWEEVLTPDQRVSFMEFLGFLQRTDLSYIKSFVSDALGTTSIQTPWIDDNPSTETAQAWNAGFLRGRAYGIDLLRTEGEHVEGATGETREESEDTESDGDDEDLPCIVSRGGPKVKRPPIFIRRLHRLLLMRAGKRTEQGKEVLEKARGSTYGTPRPPVPKPRPEVPQSDETATSHGSAQVPEPPTIHLAAQGMAYPLHEQHGMAPCPVAQAPPTPLPPVSPGDQLPGVFSDGRVACAPVPAPAGPIVRPWEPSLTQAAGQAFAPVRPQHMPVEPVPVPTVALERPVYPKPVRPAPPKIAMQGPGETSGIRRARERWRPAPWTPNPPRSPSQMSVRDRLARLRAEAQVKQASVEVQPPQLTQVSPQQPMEGPLVPEQQMFPGAPFSQVADVVRAPGVPAMQPQYFDLPLIQPISQGAPVAPLRASMGPVPPVPATQPQYFDIPLTEPINQGASAAHFLPQQPMEGPLVPEQWMFPGAALSQSVRPGVAQSQYFDLPLTQPINHGAPAAHFLHQPPMEGPWVPEQWMFQGAPPSQGTDVVQHQLDALGYTLHGLNHPGVPVSPAVNQYHLSQAAFGLPIDEDESGEGSDTSEPCEALDLSIHGRPCPQAPEWPVQEEGGQDATEVLDLSIHGRPRPRTPEWPVQGEGGQNVTGPETRRVVVSAVVHMCQDDEFPDLQDPPDEA
With B1, in assay [1], the binding result is “binds”.

B2: EBNA-5 (endogenous in lymphoblastoid cells) (protein, UniProt Q8AZK7 1-506)
chain: MGDRSEGPGPTRPGPPGIGPEGPLGQLLRRHRSPSPTRGGQEPRRVRRRVLVQQEEEVVSGSPSGPRGDRSEGPGPTRPGPPGIGPEGPLGQLLRRHRSPSPTRGGQEPRRVRRRVLVQQEEEVVSGSPSGPRGDRSEGPGPTRPGPPGIGPEGPLGQLLRRHRSPSPTRGGQEPRRVRRRVLVQQEEEVVSGSPSGPRGDRSEGPGPTRPGPPGIGPEGPLGQLLRRHRSPSPTRGGQEPRRVRRRVLVQQEEEVVSGSPSGPRGDRSEGPGPTRPGPPGIGPEGPLGQLLRRHRSPSPTRGGQEPRRVRRRVLVQQEEEVVSGSPSGPRGDRSEGPGPTRPGPPGIGPEGPLGQLLRRHRSPSPTRGGQEPRRVRRRVLVQQEEEVVSGSPSGPRGDRSEGPGPTRPGPPGIGPEGPLGQLLRRHRSPSPTRGGQEPRRVRRRVLVQQEEEVVSGSPSGPLRPRPRPPARSLREWLLRIRDHFEPPTVTTQRQSVYIEEEEDED
With B2, the binding result in assay [1] and in assay [2] was “no binding” in each case.
